{
  "source": "PubChem BioAssay AID1865",
  "about": "(National Center for Advancing Translational Sciences (NCATS), 2009)",
  "note": "Hit rate of the full screen: of about 280,000 compounds, about 540 (0.19%) were called active. This list was built around the results that the source calls inconclusive (neither active nor inactive); the mix of calls is not that of the screen. The call rests on the fitted dose curve; in most records, active means well fitted activation curve with a large enough effect; inconclusive means small, poorly fitted or top-dose-only effect; inactive means flat fitted curve, though single readings scatter. Potencies beside an inconclusive call are fits to weak or partial responses and may not hold up. Potency means the concentration at half of the fitted maximal effect; tags describe the fitted curve by direction and shape.",
  "data": [
    {"assay": "Quantitative High-Throughput Screen for Regulators of Epigenetic Control; further: nearly all actives have a fitted effect of over 60% in size", "conditions": "murine LDR cells, GFP reporter derepression, 30 h; series mostly up to 53.9 µM", "how_it_was_run": "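In this reporter-derepression format, murine cells bearing a silenced integrated CMV-GFP locus incubate with test compound (30 h, 37 C), then are washed and imaged; fluorescent objects of 20–120 um count as induced cells.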", "values": [
      {"smiles": "COc1cccc(Nc2nnc(-c3cc4ccc(O)cc4oc3=O)s2)c1", "Potency": "inconclusive: 25.1 µM [activator, single point]"},
      {"smiles": "Oc1c(/C=N/c2ncn[nH]2)ccc2ccccc12", "Potency": "inconclusive: 31.6 µM [activator, single point]"},
      {"smiles": "Cc1cc2ncn(/N=C/c3ccc(-c4ccccc4)o3)c2cc1C", "Potency": "inconclusive: 35.5 µM [activator, single point]"},
      {"smiles": "Cn1c(SCC(=O)N2CCOCC2)ncc(C(=O)Nc2ccccc2)c1=O", "Potency": "inconclusive: 35.5 µM [activator, single point]"},
      {"smiles": "COc1ccc(/C=C2\\SC(=S)N(CCCC(=O)Nc3ccccn3)C2=O)cc1OC", "Potency": "inconclusive: 10 µM [activator, partial curve]"},
      {"smiles": "Cc1ccc(C(CCN(Cc2ccccc2)C(=O)c2ccco2)c2ccco2)cc1", "note": "(stereo not given)", "Potency": "inactive"},
      {"smiles": "CCc1nnc2c(N3CCN(c4cccc(C)c4)C(C)C3)nc3ccccc3n12", "note": "(stereo not given)", "Potency": "inactive"},
      {"smiles": "C=C(C(=O)c1ccccc1)C(C(=C)C(=O)c1ccccc1)c1ccc(OC)cc1", "Potency": "inconclusive: 3.98 µM [activator, single point]"},
      {"smiles": "CC1(C)CC(=O)C2=C(C1)OC(N)=C(C#N)C2c1cc2c(cc1[N+](=O)[O-])OCO2", "note": "(stereo not given)", "Potency": "inactive"},
      {"smiles": "CCSc1nnc(NC(=O)c2ccc3ccccc3n2)s1", "Potency": "inconclusive: 35.5 µM [activator, single point]"},
      {"smiles": "Nc1nc(SCC(=O)N2CCOCC2)[nH]c(=O)c1-c1ccccc1", "Potency": "inactive"},
      {"smiles": "CCOC(=O)c1c(-c2ccsc2)csc1N", "Potency": "inactive"},
      {"smiles": "O=C(c1ccc(F)cc1)C(CN1CCOCC1)c1ccccc1", "note": "(stereo not given)", "Potency": "inconclusive: 5.01 µM [activator, single point]"},
      {"smiles": "Cc1c(-c2cccc(Cl)c2)nc2ccccc2c1C(=O)OC/C(O)=C(\\C#N)c1nc2ccccc2[nH]1", "Potency": "inconclusive: 35.5 µM [activator, single point]"},
      {"smiles": "Cc1ccc(-c2cccc(NC(=O)C3C(C(=O)O)[C@@H]4C=C[C@H]3C4)c2)o1", "note": "(stereo not given in full)", "Potency": "inconclusive: 35.5 µM [activator, single point]"},
      {"smiles": "CC(=O)c1cccc(NC(=O)Cn2c(=O)c(CNc3ccc(C)cc3)cc3cc4c(cc32)OCCO4)c1", "Potency": "inconclusive: 28.2 µM [activator, single point]"},
      {"smiles": "O=C(c1ccccc1)c1coc2c1C(=O)c1ccccc1C2=O", "Potency": "inconclusive: 35.5 µM [activator, single point]"},
      {"smiles": "Cc1c(C(=O)N(C)Cc2ccccc2)oc2ccc(S(=O)(=O)N3CCCC3)cc12", "Potency": "inactive"},
      {"smiles": "CCc1ccc(N2C(=O)/C(=C/c3cccs3)N(CC(=O)OC)C2=S)cc1", "Potency": "inconclusive: 14.1 µM [activator, single point]"},
      {"smiles": "Cc1nn(C(=O)c2ccccc2F)c(C)c1S(=O)(=O)N1CCOCC1", "Potency": "inactive"},
      {"smiles": "Cc1ccc(-c2nnn(CC(=O)N(c3cnc4ccccc4c3)C(C(=O)NC3CCCC3)c3ccncc3)n2)o1", "note": "(stereo not given)", "Potency": "inconclusive: 31.6 µM [activator, single point]"},
      {"smiles": "N#Cc1sc2nc(-c3cccs3)cc(-c3ccccc3)c2c1N", "Potency": "inconclusive: 35.5 µM [activator, single point]"},
      {"smiles": "O=C1ON=C(c2ccccc2)/C1=C/c1cccnc1", "Potency": "inactive"},
      {"smiles": "O=C(Cc1nc2ccccc2[nH]c1=O)c1ccc(Cl)cc1", "Potency": "inconclusive: 11.2 µM [activator, partial curve]"},
      {"smiles": "COc1ccccc1Cc1nc2ccccc2nc1SCC(=O)NCCc1ccccc1", "Potency": "inconclusive: 35.5 µM [activator, single point]"},
      {"smiles": "CCCCCC(=O)Nc1ccc2ccccc2c1", "Potency": "inactive"},
      {"smiles": "O=C(Nc1ccc(C(F)(F)F)cc1)c1cc(S(=O)(=O)NC2CCCCCC2)ccc1F", "Potency": "inconclusive: 35.5 µM [activator, single point]"},
      {"smiles": "COc1cc(C=C2C(=O)c3ccccc3C2=O)cc(OC)c1", "Potency": "inconclusive: 25.1 µM [activator, single point]"},
      {"smiles": "CC(=O)N1CCN(c2ccc(Nc3ncnc4c3oc3ccccc34)cc2)CC1", "Potency": "inactive"},
      {"smiles": "CC(C)(C)NNC(=S)Nc1cccc(C(F)(F)F)c1", "Potency": "inconclusive: 35.5 µM [activator, single point]"},
      {"smiles": "O=c1c2ccccc2nnn1CSc1nnc(-c2cccnc2)n1-c1ccccc1F", "Potency": "inconclusive: 5.62 µM [activator, single point]"},
      {"smiles": "O=C(Nc1ccccc1F)c1nc(S(=O)(=O)Cc2ccccc2F)ncc1Cl", "Potency": "inconclusive: 5.62 µM [activator, single point]"},
      {"smiles": "COC(=O)[C@@]1(Cc2ccc(F)cc2)[C@H]2c3cc(C(=O)N4CCCC4)n(Cc4c(CO)[nH]cc(C)c4=O)c3C[C@H]2CN1C(=O)c1ccccc1", "Potency": "inactive"},
      {"smiles": "O=[N+]([O-])c1ccc2[nH]c3nc4ccccc4nc3c2c1", "Potency": "inconclusive: 35.5 µM [activator, single point]"},
      {"smiles": "COc1ccccc1CNC(=O)c1ccccc1NC(=O)c1nsc2ccccc12", "Potency": "inconclusive: 25.1 µM [activator, single point]"},
      {"smiles": "CC1=CC(C)(C)N2C(=O)C3(C(C#N)=C(N)Oc4cc(O)ccc43)c3c(C)c(C)cc1c32", "note": "(stereo not given)", "Potency": "inactive"},
      {"smiles": "Cc1ccc(NC(=O)c2c(NC(=O)c3ccco3)sc3c2CCC(C(C)(C)C)C3)c(C)c1", "note": "(stereo not given)", "Potency": "inconclusive: 6.31 µM [activator, single point]"},
      {"smiles": "Cc1cc(C)c2oc(-c3cccc(NC(=O)c4ccc(Br)o4)c3)nc2c1", "Potency": "inactive"},
      {"smiles": "C=C1C2CC[C@]3(CCC4[C@@]5(C)CCC[C@@]4(CN(CCO)C5)[C@@H]3C2)[C@@H]1O", "note": "(stereo not given in full)", "Potency": "inactive"},
      {"smiles": "O=C(CSc1c2c(nc3ccccc13)CCC2)N1CCCC1", "Potency": "inactive"},
      {"smiles": "O=C(Nc1ccccc1)Nc1cccc(C(F)(F)F)c1", "Potency": "inactive"},
      {"smiles": "CCS(=O)(=O)c1ccc2oc(SCC(=O)NC3CCCC(C)C3C)nc2c1", "note": "(stereo not given)", "Potency": "inactive"},
      {"smiles": "Fc1ccccc1C(c1nnnn1Cc1ccc2c(c1)OCO2)N1CCN(Cc2ccco2)CC1", "note": "(stereo not given)", "Potency": "inconclusive: 6.31 µM [activator, single point]"},
      {"smiles": "COc1cccc(OC)c1C(=O)Oc1ccc2c(c1)O/C(=C\\c1ccncc1)C2=O", "Potency": "inconclusive: 15.8 µM [activator, single point]"},
      {"smiles": "CCOC(=O)c1c(-c2ccccc2)oc2ccc(O)c(CN3CCN(C)CC3)c12", "Potency": "inconclusive: 35.5 µM [activator, single point]"},
      {"smiles": "Cc1cc(/C=C2\\SC(=S)N(Cc3ccco3)C2=O)c(C)n1-c1cccnc1", "Potency": "active: 22.4 µM"},
      {"smiles": "CC(=O)CCc1c(C)[nH]c2ccc(NC(C)=O)cc2c1=O", "Potency": "inactive"},
      {"smiles": "COc1cc(C(=O)Nc2cccc(-c3nnc(-c4ccco4)o3)c2)ccc1OC(C)=O", "Potency": "inactive"},
      {"smiles": "COc1ccc(C2C(=O)N(C3CCCCC3)CC(=O)N2Cc2ccco2)cc1", "note": "(stereo not given)", "Potency": "inactive"},
      {"smiles": "COc1ccc2c(c1)CC/C(=C\\c1ccc(C)o1)C2=O", "Potency": "inconclusive: 31.6 µM [activator, single point]"},
      {"smiles": "Cc1ccc2c(=O)c(C(=O)c3cccc(Cl)c3)cn(CC(=O)NC3CCCCC3)c2n1", "Potency": "inconclusive: 20 µM [activator, single point]"},
      {"smiles": "CCN(CC)c1ccc(N=Cc2ccc(N(CC)CC)cc2O)cc1", "Potency": "inactive"},
      {"smiles": "Cn1c(=O)c([N+](=O)[O-])c(Oc2ccccc2)c2ccccc21", "Potency": "inconclusive: 3.55 µM [activator, single point]"},
      {"smiles": "CC1=CC(=O)C(C(C)C)=C/C1=N/OS(=O)(=O)c1ccccc1", "Potency": "inactive"},
      {"smiles": "Cc1c(Cl)cccc1NC(=S)N=Nc1c(O)n(CN2CCOCC2)c2ccccc12", "Potency": "inconclusive: 31.6 µM [activator, single point]"},
      {"smiles": "CCCCn1c(N)c(NCc2ccccc2OC)c(=O)[nH]c1=O", "Potency": "inconclusive: 17.8 µM [activator, partial curve, poor fit]"},
      {"smiles": "Cn1c(=O)c2c(ncn2CC(=O)N/N=C/C(Br)=C/c2ccccc2)n(C)c1=O", "Potency": "inconclusive: 25.1 µM [activator, single point]"},
      {"smiles": "COc1ccc(NC(=O)c2cccc(N3CCCS3(=O)=O)c2)c(OC)c1", "Potency": "inactive"},
      {"smiles": "CC(C)c1[nH]nc2c1C(C1C=CCCC1)C(C#N)=C(N)O2", "note": "(stereo not given)", "Potency": "inconclusive: 28.2 µM [activator, single point]"},
      {"smiles": "Cn1c(SCC(=O)c2ccc3c(c2)Cc2ccccc2-3)nnc1-c1ccccc1", "Potency": "inactive"},
      {"smiles": "CCOc1ccc(N2C(=O)/C(=C/c3ccco3)N(C)C2=S)cc1", "Potency": "inactive"},
      {"smiles": "COc1ccc2c(c1)c1nc3ccccc3nc1n2Cc1ccc(OC(C)C)c(OC)c1", "Potency": "inconclusive: 31.6 µM [activator, single point]"},
      {"smiles": "COc1ccc(/C=N/NC(=O)Nc2cccc3nsnc23)cc1OC", "Potency": "inconclusive: 25.1 µM [activator, single point]"},
      {"smiles": "O=C1c2cccc3c([N+](=O)[O-])ccc(c23)C(=O)N1CCc1ccccn1", "Potency": "inconclusive: 10 µM [activator, partial curve]"},
      {"smiles": "COc1cccc(CN(C)CC(=O)Nc2ccccc2C(=O)Nc2ccccc2)c1", "Potency": "inconclusive: 35.5 µM [activator, single point]"},
      {"smiles": "O=C1CC(Sc2nnc(-c3ccccc3O)o2)C(=O)N1c1ccccc1", "note": "(stereo not given)", "Potency": "inactive"},
      {"smiles": "CCOc1cc(/C=C(/C#N)c2nc3ccccc3[nH]2)ccc1Oc1ccc([N+](=O)[O-])cn1", "Potency": "inconclusive: 31.6 µM [activator, single point]"},
      {"smiles": "Cc1cc(N)c(-n2cc3c(=O)n(C)c(=O)n(C)c3c2)cc1C", "Potency": "inconclusive: 17.8 µM [activator, single point]"},
      {"smiles": "O=C(O)c1ccc(Nc2ncc([N+](=O)[O-])cc2[N+](=O)[O-])cc1", "Potency": "inactive"},
      {"smiles": "Cc1ccccc1-n1c(SCC(=O)N2CCC(C(=O)O)CC2)nnc1-c1ccncc1", "Potency": "inconclusive: 0.141 µM [activator, partial curve, poor fit]"}
    ]}
  ]
}
